Results reported in the supplement of paper PMC12632987.
Whole data set: some 4,500 sequences, median “median log2 fold change of GCK-ALFA target abundance (FLAG IP / Myc IP barcode read proportion)” near 0.078, cut for the lowest 2% near -0.6. The list shows a part of the results.

B1: GBRAP_117_2568 (protein)
chain: SEELEKLKEEVEKLVEESVELIEKRKAAPEEEKPKLEKELEELVLKRLEELIKKYGLEKTEELLEEALLDLDAETYFTIESAVIEAINKIKEKRKKEEEE
B2: GBRAP_52_6130 (protein)
chain: MKEEAKELVEKLIELEKEGKEEELEKLAREIVETKDDEFLKLIAEELAERAKKATPEEREVIERVGEILAREIEEAGRDEVLADYVESTIAAALYEAEQA
B3: GBRAP_52_5972 (protein)
chain: MREEARAFVERAVELQLAGDEEGLEALAREFAARATDEELEVLAEAVAELVRSADAERAEAALEAALRLEDVLLEEGRDEALADAIVAAAAAAAVARRQA
B4: GBRAP_160_4258 (protein)
chain: DEKREKLIKDVEEDKKEILELVDEESAEEVRTFAVVEMGSHIMEAIDEGVVSDEEEEQMAKIRDELEAELKANENGSKEEIKKIITEHFDKLIELLKKAK
B5: GBRAP_117_2582 (protein)
chain: EEEKEKVKKELRETIRRAGERVKEAEKLSEEEREKVLKEVREEIREAVERALEVLSEEEVLEIVEEELLSFDAKTYFEISSFVEEAIQEIRERRREEEEK
B6: GBRAP_52_6028 (protein)
chain: MREELEAAVREILALVRAGKLEEARAAARELVASLNEEEVELLIEEVARLAAAARPEDLDAVWRLAEIIAEALEEAGVDEVLADDLLARTAAALYEAEQR
B7: GBRAP_166_4933 (protein)
chain: DLEEIKKEVKEKVVELAKKAAELDLEGQIEVALEIRELLEEAKEKGLSKEELKEILSEAISTLKDNPELALQLLRYIEAATDMDEELIDVIDEVREEFLK
B8: GBRAP_9_7125 (protein)
chain: KEELIRKLAEVARDMVEDISKAVPELTEEMKEEFLERIEELEKEALEDKSLTPEEIAERFKELVEEIEEEVKKIVNEELKKIVEAIALTALEEIDEIVEE
B9: GBRAP_160_4024 (protein)
chain: SASVAAIVADFREDLELILAHAAEMDEATIAGALRTAVGRAIMDVAEDPNHRDWTREEVDALDALADETAATLATGDPAAARAAVAALAAAVAAAVEKAA
B10: GBRAP_26_5428 (protein)
chain: VEEYFKEMIDKIEAAADELLDPDLAAAAKTIAATLLEEVLEKVEEENLSIEEIKKLLEEAVKELAEELKELGVDEETIEKLTKVAEEAAKETVEKIKKSS
B11: GBRAP_137_3656 (protein)
chain: GTVEIDATIDGDFAEVVIKASTKEIAEEAADIAAAVADETGVAYAIHLDLEEKTVTIDLLGPREQLDAFLDRLVARLAAKYNVRFTRTVDGETTEETLER
B12: GBRAP_125_3061 (protein)
chain: SKEEDIANLELLARALGYSEDDIAELRELARAGSIKNTLIAIALAEGDEELADAIEKLTEEEVKAVLAEVAAEIAANPDLTPEQVRALLLEVARRALAAS
B13: GBRAP_160_4796 (protein)
chain: SERVEKVAEIFREAAEEALKMAEGETHEERVNIFDVELGSAIMEAIEEGLLNDEEEDVAIEVRDELIAALRANPDLTPEEIRALAEEAVERLRKRLEELA
B14: GBRAP_160_4550 (protein)
chain: SETVEKLVKFAREETEEALELAREVNWEDAVNVLAVAWGQVLMEAVEDERATDEMEDAVADVGDELVAEFKKLKDASWEEIEALAKEKLKELEERLKELA
B15: GBRAP_52_5969 (protein)
chain: MRERAEELAKELVELKKKGDEEGLEEKAREIARTLNDEELRLLAEALAEMVKEGDLETAEIALEVAIVLADELEREGRDPRIASDILGTVTTAAYELEQK
B16: GBRAP_78_6701 (protein)
chain: KVEELIDEAIEKLLEASRLASQLPLEQSTEVLDLLVDALTDLEEAEEEGFDLEKLKRAKEHVEKALELAKKLKTPQAKKLAEELEKALELLEKAIEEIEK
B17: GBRAP_128_3581 (protein)
chain: SVEEAKKYTIEKLEAIKKAGPEERKKLAKELAERFASLSKEEQEAAADTIIELLPELSAEDLRALAEALRAADTSDNPLKTNLAAEVEVEALNKEEEEEE
B18: GBRAP_80_6838 (protein)
chain: ARERLEAALARLAELLPELAPEVRAMVERLLAAGVPVEDLADWVEAAVELAELDKERARELILEAIEEVEELLEEGDLDGARAVIRGYAGDALVEVEELE
B19: GBRAP_11_2821 (protein)
chain: KKEKLKELAEKAEELADEIKRLIESGNVTKEELEELAKKAEELLEFTKKYGDEDEVKLAKIALEEIKKAIEDPENLKEHLENALAAVRVLAGLFLLRYEE
B20: GBRAP_83_6913 (protein)
chain: MKEITVVAAGDRIEEAFEAAIDLHKEGVDHIILEVILRPEEFPTLEAGVRRLLEAGVNVDLRVLLVGATPEEAEALRDRLLAIAREAGRDVRVEVEVIEP
B21: GBRAP_160_4146 (protein)
chain: SEELKKLIKEIKEIAEEALKLIEGETPEEAKTIAKVAFGEMVMLVMSNEAVSEETEEKVGEIADEAIAYLDANPDLTVEEVKELLKEATEKIIEVLKEEI
B22: GBRAP_160_4476 (protein)
chain: MEKVKKAVEELRKDVEETLEENEDLSPKDLLLAVEVTIGSDLMEAVEEGTLSDEQEDIVIKAMDEIRELREESENMSVEEVKKRAREIIEKMAEEILKAA
B23: GBRAP_43_5793 (protein)
chain: MEEIVEGALDFARTALETPEITDETKARIVVDAVEFAADEGVLTEEELRELLELLAESVSDETALRALKEILEELKKLGAPESLLEVVEEAIEEVEERLA
B24: GBRAP_128_3172 (protein)
chain: SSEEIVEEVRRLLEEAITAGPEEARRIFREIVDLMLEADKETAERIAEVVIELLPKFTEEQLEILIDVIREMRPKADPYKQELLNEVAVAAGERILELEE
B25: GBRAP_52_6264 (protein)
chain: MREELKKKVEEIFELVKEGKLEEARKKAKELVESLNEEELELFIEEAAEYAKTIKKEEIEYAEKMVEIIAEEMEKAGVPEELVSLFEAEVYGALYEREKE
B26: GBRAP_160_4451 (protein)
chain: SERVEKLLKEVEETKEEAIELIEGQSHEERVVIVRGEFGALLYELSLDESVSDETEDEIAEVVDELVEYLEENPDLSEEEIKELIEEAAEKIKEIIKKNL
B27: GBRAP_128_3549 (protein)
chain: SLEEARERARRAVEEIAASDVERAREITARFAEELRGWSLEEVEAALEVVREEAGKLDAEKLEAVADVLLERRGEFSPEVQRLIADTAVELLNLAEEKEE
B28: GBRAP_11_2714 (protein)
chain: KKEKLEKFAKKAEKLAKKIKKLIKEGPKKEELKKLAKEAKKLAKEAKEAGLPESIVELVKLAAELLEEAIKDPKNAKEYLKNAAAALDVAAGQLLLEAEE
B29: GBRAP_184_5019 (protein)
chain: KVLEREIEINNVEEARAKLAEVRAEAAAEKAELILYVKIKNPTMEILKAIAEELARIMAEGAVPRLTVGIDADLTEEQIDFLVETLSAAGVRLVLAIPEE

The binders below were run against GABARAP, O95166 (assay: median log2 fold change of GCK-ALFA target abundance (FLAG IP / Myc IP barcode read proportion) (log2 ratio); each designed protein is fused to an ALFA-tag nanobody in HEK293 cells to bring the named protein to FLAG-tagged glucokinase (GCK); Myc marks an untargeted standard; higher = target protein stabilised (more abundant)). Conditions: target protein: 3xFLAG-MCP-GCK-ALFA reporter; HEK293 landing pad (RPLP).
GABARAP, O95166, sequence (O95166 whole entry, the tested form may be a part): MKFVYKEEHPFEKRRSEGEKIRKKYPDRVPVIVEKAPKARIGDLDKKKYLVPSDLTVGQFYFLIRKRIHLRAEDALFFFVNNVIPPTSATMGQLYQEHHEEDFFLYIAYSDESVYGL
How it was run: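 Sequencing of reverse-transcribed, amplified circular RNA barcodes from anti-FLAG and anti-Myc immunoprecipitates provided the readout for an ALFA-nanobody-fused binder library recombined into HEK293 landing-pad cells. Those cells were induced with 2 μg mL^−1 doxycycline, transfected with a plasmid expressing a FLAG-tagged target and a Myc-tagged standard, and lysed after 48 h. Target abundance is the per-binder median log2 ratio of FLAG to Myc barcode read proportions. Only barcodes at a proportion of ≥10^−7 in both replicates and binders with ≥3 barcodes per replicate were kept, with a 10^−6 pseudocount added before the two replicates were pooled.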
B1 was tested, and the “median log2 fold change” value was 0.0895. In the case of B2, the “median log2 fold change” value is reported as 0.127. B3 was tested, and the “median log2 fold change” value was -0.0742. In the case of B4, the “median log2 fold change” value is reported as 0.189. In the case of B5, the “median log2 fold change” value is reported as 0.528. For B6, the “median log2 fold change” value was -0.0434. B7 was tested, and the “median log2 fold change” value was 0.091. In the case of B8, the “median log2 fold change” value is reported as 0.0848. For B9, the “median log2 fold change” value was 0.136. For B10, the “median log2 fold change” value was 0.27. In the case of B11, the “median log2 fold change” value is reported as 0.0492. For B12, the “median log2 fold change” value was -0.00612. With B13 the “median log2 fold change” value was 0.0784. B14 was tested, and the “median log2 fold change” value was -0.255. B15 was tested, and the “median log2 fold change” value was 0.00299. With B16 the “median log2 fold change” value was 0.169. In the case of B17, the “median log2 fold change” value is reported as 0.278. B18 was tested, and the “median log2 fold change” value was 0.0357. For B19, the “median log2 fold change” value was 0.0418. With B20 the “median log2 fold change” value was 0.133. In the case of B21, the “median log2 fold change” value is reported as -0.0694. B22 was tested, and the “median log2 fold change” value was -0.279. B23 was tested, and the “median log2 fold change” value was -0.256. B24 was tested, and the “median log2 fold change” value was 0.24. B25 was tested, and the “median log2 fold change” value was 0.236. With B26 the “median log2 fold change” value was -0.0716. B27 was tested, and the “median log2 fold change” value was 0.0777. B28 was tested, and the “median log2 fold change” value was -0.0723. In the case of B29, the “median log2 fold change” value is reported as 0.0641.
